# Experimental data taken from PubChem BioAssay AID1508642 (National Center for Advancing Translational Sciences (NCATS), 2021).
# In all, about 43,000 compounds went through this assay and about 200 (0.47%) were called active. The shares of active, inactive and inconclusive entries below differ from those in the screen. Calls come from the whole dose curve; as a rule, active = well fitted cell-killing curve with a large enough effect; inconclusive = small, poorly fitted or top-dose-only effect, or effect the other way; inactive = flat fitted curve, though single readings scatter. Where the call is inconclusive, the potency comes from a doubtful curve fit.
# Assay: Cell viability qHTS assay in S16 Pmp22-F2sN cells; note: nearly all actives have a fitted effect of over 65% in size
# Conditions: S16 Pmp22-F2sN Schwann cells (luciferase reporters placed in the Pmp22 gene) viability, CellTiter-Glo, 24 h; activity change, negative = cytotoxicity: at 57.5 µM (top of the series)
# In short: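 Luminescence from CellTiter-Glo, read by CCD camera after a 15 min room-temperature incubation, served as the viability signal. Reporter Schwann cells (S16 Pmp22-F2sN) had been treated with pin-transferred compounds for 24 h at 37C.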
# % is set by controls: 0 for no effect and ±100 for the full control effect; potency is the fitted concentration of half-maximal effect; tags give direction and shape of the fitted curve.
SMILES,Potency,"activity change, negative = cytotoxicity"
COC(=O)c1ccccc1NC(=O)Cn1c(=O)n(CCCCC(=O)NCc2ccc3c(c2)OCO3)c(=O)c2ccccc21,"inconclusive: 20 µM [rising, partial curve, poor fit]",–
Cc1ccc(CNC(=O)c2cccc(Nc3nc4ccccc4n4nnnc34)c2)cc1,active: 8.91 µM,–
CCOC(=O)c1c(Nc2cccc(C)c2)nnc(-c2ccccc2)c1-c1ccccc1,"inconclusive: 39.8 µM [cytotoxic, single point]",–
CCc1cccc(NC(=O)COc2cc(=O)n(CC)c3ccccc23)c1,"inconclusive: 31.6 µM [cytotoxic, single point]",–
CC(C)c1ccc(/C=C(\C#N)c2nc(-c3ccc(O)cc3)cs2)cc1,"inconclusive: 39.8 µM [cytotoxic, single point]",–
CCOc1ccccc1CN1CCc2nc(Nc3ccccc3)ncc2C1,"inconclusive: 39.8 µM [cytotoxic, single point]",–
O=C(Nc1c2c(nn1-c1ccc(Cl)cc1)CS(=O)(=O)C2)c1cccc(Cl)c1,"inconclusive: 39.8 µM [cytotoxic, partial curve, poor fit]",–
O=C(CSc1ccc2nnc(CCNS(=O)(=O)c3ccccc3)n2n1)Nc1ccccc1C(F)(F)F,–,inactive: 11%
CC(=O)N1c2ccc(S(=O)(=O)NCCC(=O)Nc3ccc(C)cc3Br)cc2CC1C (stereo unspecified),"inconclusive: 39.8 µM [cytotoxic, single point]",–
Cc1ccc(C)c(S(=O)(=O)c2nnn3c2nc(N2CCCCC2)c2sccc23)c1,"inconclusive: 39.8 µM [cytotoxic, single point]",–
CCOc1ccc(CC(=O)NCc2ccc3c(c2)CCN3C(C)=O)cc1OCC,"inconclusive: 0.0501 µM [rising, full curve]",–
COc1ccc(NC(=O)c2ccc3c(c2)CCN3S(=O)(=O)c2ccccc2)cc1,"inconclusive: 28.2 µM [cytotoxic, partial curve, poor fit]",–
COc1ccc(OC)c(NC(=O)Cn2cc(C(=O)c3ccc(Cl)cc3)c(=O)c3cc(OC)ccc32)c1,–,inactive: 2.33%
COc1ccc(-c2nc(S(=O)(=O)c3ccc(C)cc3)c(NCc3ccccc3)o2)cc1,–,inactive: -1.29%
CCc1c(C)c(C#N)c2nc3ccccc3n2c1Nc1cccc(C(F)(F)F)c1,–,inactive: -0.171%
Cc1noc2ncnc(N3CCCC(C(=O)Nc4cccc(C(F)(F)F)c4)C3)c12 (stereo unspecified),"inconclusive: 31.6 µM [cytotoxic, partial curve, poor fit]",–
CC(C)c1ccc(NC(=O)Cn2c(=O)oc3cc(S(=O)(=O)N4CCCC4)ccc32)cc1,–,inactive: -15.2%
CC(C)c1ccc(NC(=O)C(Cc2ccccc2)NS(=O)(=O)c2ccc3c(c2)oc(=O)n3C)cc1 (stereo unspecified),"inconclusive: 39.8 µM [cytotoxic, single point]",–
O=C(NCCCN1CCN(c2ccc(F)cc2)CC1)c1ccc2nc(CCc3ccccc3)oc2c1,"inconclusive: 39.8 µM [cytotoxic, single point]",–
CCc1ccc(-c2nc(CSCC(=O)NCc3ccc(C)cc3)c(C)o2)cc1,"inconclusive: 35.5 µM [cytotoxic, partial curve, poor fit]",–
CCc1ccc(NC(=O)CC2C(=O)N(c3ccc(Cl)cc3)C(=O)N2C2CCCC2)cc1 (stereo unspecified),"inconclusive: 25.1 µM [cytotoxic, single point]",–

SMILES,Potency,"activity change, negative = cytotoxicity"
O=C(NCc1ccco1)c1ccc2c(c1)N(Cc1cccc(Cl)c1)C(=O)c1ccccc1S2=O (stereo unspecified),"inconclusive: 39.8 µM [cytotoxic, single point]",–
Cc1nc(-c2ccc(C)c(S(=O)(=O)N3CCC(C(=O)NCc4ccc(F)cc4)CC3)c2)no1,"inconclusive: 15.8 µM [cytotoxic, partial curve, poor fit]",–
COc1ccc(S(=O)(=O)N(CCc2ccccc2)CC(=O)Nc2cc(C)cc(C)c2)cc1OC,"inconclusive: 39.8 µM [cytotoxic, partial curve, poor fit]",–
Cc1cc(N2CCC(C)CC2)nc2ccc(NC(=O)CCC(=O)N3CCN(c4ccccc4F)CC3)cc12,"inconclusive: 39.8 µM [cytotoxic, single point]",–
CCCCOC(=O)c1ccc(Nc2nc3ccc(C(=O)c4ccccc4)cc3n3cnnc23)cc1,–,inactive: -3.15%
CCc1ccc2occ(CC(=O)Nc3ccc(C)c(C)c3)c2c1,"inconclusive: 39.8 µM [cytotoxic, single point]",–
Cc1ccn2c(Nc3ccc4c(c3)OCCO4)c(-c3ccc(N(C)C)cc3)nc2c1,–,inactive: -4.49%
COc1ccc(-c2c(C)nn3c(N4CCN(c5cc(Cl)ccc5C)CC4)cc(C)nc23)cc1OC,–,inactive: 12.7%
Cc1ccc(S(=O)(=O)C(CNS(=O)(=O)c2ccc(F)c(C)c2)c2cccs2)cc1 (stereo unspecified),active: 25.1 µM,–
O=C(NCCS(=O)(=O)N1CCN(c2ccccc2F)CC1)C1CC(=O)N(c2ccc(F)cc2)C1 (stereo unspecified),–,inactive: 2.9%
Cc1nc(-c2cccc(F)c2)sc1CCNC(=O)C(=O)Nc1ccc2c(c1)OCCO2,–,inactive: -8.72%
Cc1ccc(NC(=O)C2CCCN2S(=O)(=O)c2ccc3nc(-c4ccccc4)[nH]c3c2)cc1C (stereo unspecified),"inconclusive: 39.8 µM [cytotoxic, single point]",–
Cc1ccc(NC(=O)CN(c2ccc(C)cc2)S(=O)(=O)c2cccc3nonc23)cc1,"inconclusive: 10 µM [cytotoxic, partial curve, poor fit]",–
Cc1c2cnn(-c3ccccc3)c(=O)c2c(C)n1C(C)C(=O)NCc1cccc(Br)c1 (stereo unspecified),–,inactive: -15.5%
Clc1cccc(-n2ncc3c(NCCCN4CCOCC4)ncnc32)c1,"inconclusive: 39.8 µM [cytotoxic, single point]",–
Cc1cccc(Nc2nc3c(S(=O)(=O)c4ccc(Br)cc4)nnn3c3ccsc23)c1C,–,inactive: -4.43%
CCOc1ccccc1C(=O)NCc1ccc2c(c1)CCN2C(=O)c1ccccc1,"inconclusive: 28.2 µM [cytotoxic, single point]",–
COc1cccc(-c2nc3c(C#N)c[nH]n3c2NC2CCC(C)CC2)c1 (stereo unspecified),"inconclusive: 39.8 µM [cytotoxic, single point]",–
O=C(Nc1ccc2oc(-c3ccc4ccccc4c3)nc2c1)c1cc(Cl)ccc1Cl,–,inactive: 0.0601%
COCCn1c(SCC(=O)c2ccc(F)cc2)nc2cc(C(=O)NC3CCCC3)ccc2c1=O,"inconclusive: 1.78 µM [cytotoxic, full curve]",–
COc1ccc(Cl)cc1NC(=O)C1CCN(S(=O)(=O)c2ccc(F)cc2)CC1,"inconclusive: 8.91 µM [cytotoxic, partial curve, poor fit]",–

SMILES,Potency,"activity change, negative = cytotoxicity"
COc1ccc(C(=O)N(c2ccc(C)cc2)S(=O)(=O)c2ccc(C)cc2)cc1,"inconclusive: 17.8 µM [cytotoxic, partial curve]",–
Cc1ccc(Cc2nc3ccccc3nc2SCC(=O)NCc2ccccc2Cl)cc1,"inconclusive: 0.398 µM [cytotoxic, full curve, poor fit]",–
CC1CCN(C(=O)CSc2nnc(NC(=O)Nc3ccccc3)s2)CC1,–,inactive: -24.2%
COc1ccc(N2CCN(CCCNC(=O)c3ccc4nc(Cc5ccccc5)oc4c3)CC2)cc1,"inconclusive: 39.8 µM [cytotoxic, single point]",–
Cc1ccc(CNC(=O)CCc2nc3cccnc3n2Cc2ccccc2)cc1,"inconclusive: 3.98 µM [cytotoxic, partial curve, poor fit]",–
O=C(CCNS(=O)(=O)c1ccc2c(c1)CCN2C(=O)C1CC1)N1CCN(c2cccc(C(F)(F)F)c2)CC1,"inconclusive: 35.5 µM [cytotoxic, partial curve, poor fit]",–
COCc1oc2ccc(NS(=O)(=O)c3ccc(C)cc3)cc2c1C(=O)OC,–,inactive: -25.6%
CC(=O)c1cccc(NC(=O)Cn2cc(C(=O)c3cccc(Cl)c3)c(=O)c3ccc(C)nc32)c1,"inconclusive: 35.5 µM [rising, partial curve, poor fit]",–
COc1ccc(OCc2ccc(-c3nc(C#N)c(NCc4cccnc4)o3)o2)cc1,"inconclusive: 25.1 µM [cytotoxic, single point]",–
CCC(=O)N1CCCc2cc(S(=O)(=O)N3CCC(C(=O)Nc4ccc(C#N)cc4)CC3)ccc21,"inconclusive: 22.4 µM [cytotoxic, partial curve, poor fit]",–
COC(=O)c1ccc(-n2c(/C=C/c3cc(OC)c(OC)c(OC)c3)nc3cc(Cl)ccc3c2=O)cc1,"inconclusive: 22.4 µM [cytotoxic, partial curve, poor fit]",–
CCOc1ccccc1CNS(=O)(=O)c1ccc2c(c1)C(C)(C)C(=O)N2C,"inconclusive: 0.355 µM [cytotoxic, full curve, poor fit]",–
CCOC(=O)CN(Cc1ccccc1)C(C(=O)NC1CCCCC1)c1ccc(C)cc1 (stereo unspecified),"inconclusive: 39.8 µM [cytotoxic, partial curve, poor fit]",–
O=S(=O)(NCc1ccccc1Cl)c1ccc(-c2cnc(C3CC3)o2)cc1,"inconclusive: 39.8 µM [rising, single point]",–
CN1CCN(C(c2ccc(Cl)cc2Cl)c2sc3nc(-c4ccco4)nn3c2O)CC1 (stereo unspecified),"inconclusive: 15.8 µM [rising, partial curve, poor fit]",–
Cc1ccccc1CNC(=O)c1cccc(NC(=O)c2nsc3ccccc23)c1,"inconclusive: 25.1 µM [cytotoxic, single point]",–
COc1ccc(CN2CCc3nc(Nc4ccccc4)ncc3C2)c(OC)c1OC,–,inactive: -0.963%
COc1ccc(NC(=O)CN2C(=O)CSc3ccc(S(=O)(=O)N(C)C)cc32)cc1OC,"inconclusive: 44.7 µM [cytotoxic, single point]",–
Cn1c(=O)oc2cc(S(=O)(=O)N3CCCC(C(=O)N4CCN(c5ccc(Cl)cc5)CC4)C3)ccc21 (stereo unspecified),"inconclusive: 7.08 µM [cytotoxic, single point]",–
